From PubChem BioAssay (NCATS)
This list was built around the results that the source calls inconclusive (neither active nor inactive); the mix of calls is not that of the screen. A potency beside an inconclusive call is a rough fit, not a confirmed value. For part of these data: “Side channel” marks fits to a control or component signal instead of the main read-out. Activity calls are given as the source filed them. Unless noted, calls come from the whole dose curve; as a rule, active = well fitted inhibition curve with a large enough effect; inconclusive = small, poorly fitted or top-dose-only effect; inactive = no such curve, though single readings can be large or run the other way.

Test system: not listed separately
Test: qHTS Assay for Identification of Small Molecule Antagonists for NFkB Signaling Pathway (AID 895; active = well fitted inhibition curve with a large enough effect in the signal ratio, with a control signal flat, not every such curve was filed as active; the % refers to the signal ratio; for activity change, negative = inhibition: % is set by controls: 0 for no effect and ±100 for the full control effect)
Conditions: NFkB beta-lactamase reporter cells, FRET ratio 460/530, stimulated with 10 pM TNF alpha; activity change, negative = inhibition: at 38.3 µM (top of the series)
Summary of the method: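 Beta-lactamase reporter read-out (460 and 530 nm emission ratio, 405 nm excitation, 2 hrs substrate loading RT) after 5 hr stimulation with 10 pM TNF alpha in compound-treated NFkB-bla ME-180 cells in low-serum medium.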
Potency is the fitted concentration of half-maximal effect; tags give direction and shape of the fitted curve or compound fluorescence and quenching.

Activity change, negative = inhibition, inactive:
CC(C)(Oc1ccc([C@@H]2CC2(Cl)Cl)cc1)C(=O)O -0.203%, Nc1c2c(nc3ccccc13)CCC[C@H]2O -13.5%, CO/N=C(\C(=O)N[C@@H]1C(=O)N2C(C(=O)O)=C(CSc3nc(=O)c(O)nn3C)CS[C@@H]12)c1csc(N)n1 -6.3%, OC[C@@H]1O[C@@H](n2cnc3c(NC4CCCCC4)ncnc32)[C@@H](O)[C@H]1O -29.5%

Potency, inconclusive:
Cc1ccccc1CNc1ncnc2c1ncn2[C@@H]1O[C@@H](CO)[C@H](O)[C@@H]1O 7940 nM [side channel, rising, partial curve]

Biological target: Cytochrome P450 2C19 (Homo sapiens) (UniProt P33261)
Test: qHTS Assay for Inhibitors and Substrates of Cytochrome P450 2C19 (AID 899); note: nearly all actives have a fitted effect of over 60% in size
Conditions: recombinant CYP2C19, luciferin-H EGE luminescence; series mostly up to 11.4 µM; activity, negative = inhibition: at the top concentration
Summary of the method: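 Luminescence readout of luciferin formed from 10uM Luciferin-H EGE (KM level) by 5 nM CYP2C19 in 50mM KPO4. 60 min NADPH-driven reaction at 37C after 10 min compound preincubation; data scaled to 57uM ketoconazole inhibition.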

Sequence of UniProt P33261 (P33261 whole entry, looked up): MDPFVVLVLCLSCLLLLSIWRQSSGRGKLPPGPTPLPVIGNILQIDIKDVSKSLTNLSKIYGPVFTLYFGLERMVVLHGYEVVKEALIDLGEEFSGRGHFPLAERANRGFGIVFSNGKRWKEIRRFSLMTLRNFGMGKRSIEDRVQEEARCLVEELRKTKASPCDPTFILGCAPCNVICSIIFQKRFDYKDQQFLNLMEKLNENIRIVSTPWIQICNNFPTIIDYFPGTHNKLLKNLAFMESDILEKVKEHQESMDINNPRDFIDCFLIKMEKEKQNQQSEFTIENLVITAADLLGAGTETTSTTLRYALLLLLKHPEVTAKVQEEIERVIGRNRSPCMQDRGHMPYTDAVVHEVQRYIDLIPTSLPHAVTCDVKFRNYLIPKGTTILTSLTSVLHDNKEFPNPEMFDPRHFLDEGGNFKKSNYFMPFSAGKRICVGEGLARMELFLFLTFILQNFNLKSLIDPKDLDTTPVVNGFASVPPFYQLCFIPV

Potency, inconclusive:
CCC(=O)OCN1C(=O)C=CC1=O 2 nM [inhibitor, full curve, poor fit], Cc1ccc(Nc2nnc(-c3ccc4c(c3)OCO4)o2)c(C)c1 2510 nM [inhibitor, partial curve, poor fit], OC[C@@H]1O[C@@H](n2cnc3c(NC4CCCCC4)ncnc32)[C@@H](O)[C@H]1O 25.1 nM [inhibitor, full curve, poor fit], O=[N+]([O-])c1ccc2c(N=Nc3ccc4ccccc4c3O)c(O)cc(S(=O)(=O)O)c2c1 2510 nM [inhibitor, partial curve, poor fit]
